Our source for the Kd values is patent publication US20140378664A1 (published 2014).

By Kd is commonly meant the free concentration of one partner at which half of the binding sites on the other are occupied at equilibrium, for simple one-to-one binding. High values mean lower affinity, low ones higher affinity.

What all share (experiment): SPR
Assay [1] addresses human EGFR extracellular domain (Prospec) (human, UniProt P00533 part only).
Assay [2] has as its target T1, c-MET (RnD systems) (UniProt P08581 25-932).
T1 chain: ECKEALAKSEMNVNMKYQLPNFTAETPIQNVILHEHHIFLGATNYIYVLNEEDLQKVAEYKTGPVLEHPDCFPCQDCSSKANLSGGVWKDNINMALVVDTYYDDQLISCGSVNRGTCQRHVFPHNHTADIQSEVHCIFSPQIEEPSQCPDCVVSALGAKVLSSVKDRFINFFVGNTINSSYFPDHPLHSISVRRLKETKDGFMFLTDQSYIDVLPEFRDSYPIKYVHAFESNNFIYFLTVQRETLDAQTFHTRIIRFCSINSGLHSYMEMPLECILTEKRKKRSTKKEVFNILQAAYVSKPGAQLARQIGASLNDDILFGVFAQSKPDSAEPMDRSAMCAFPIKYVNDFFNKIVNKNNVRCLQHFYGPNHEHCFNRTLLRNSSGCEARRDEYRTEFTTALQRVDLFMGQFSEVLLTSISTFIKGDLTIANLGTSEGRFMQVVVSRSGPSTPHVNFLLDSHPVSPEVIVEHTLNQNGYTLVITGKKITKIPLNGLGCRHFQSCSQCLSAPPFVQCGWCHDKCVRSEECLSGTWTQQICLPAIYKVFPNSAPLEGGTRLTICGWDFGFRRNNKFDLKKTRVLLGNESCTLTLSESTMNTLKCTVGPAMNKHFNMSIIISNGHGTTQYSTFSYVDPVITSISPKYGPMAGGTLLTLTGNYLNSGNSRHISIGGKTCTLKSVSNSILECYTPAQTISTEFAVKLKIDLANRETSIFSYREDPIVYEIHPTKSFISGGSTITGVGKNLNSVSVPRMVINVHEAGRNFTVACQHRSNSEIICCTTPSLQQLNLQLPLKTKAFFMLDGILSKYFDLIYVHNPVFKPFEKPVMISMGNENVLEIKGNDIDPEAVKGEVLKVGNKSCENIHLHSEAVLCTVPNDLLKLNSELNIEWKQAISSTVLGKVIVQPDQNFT

The target of assay [3] is T2, Human c-Met (Sino Biologicals) (human, UniProt P08581 25-932).
T2 chain: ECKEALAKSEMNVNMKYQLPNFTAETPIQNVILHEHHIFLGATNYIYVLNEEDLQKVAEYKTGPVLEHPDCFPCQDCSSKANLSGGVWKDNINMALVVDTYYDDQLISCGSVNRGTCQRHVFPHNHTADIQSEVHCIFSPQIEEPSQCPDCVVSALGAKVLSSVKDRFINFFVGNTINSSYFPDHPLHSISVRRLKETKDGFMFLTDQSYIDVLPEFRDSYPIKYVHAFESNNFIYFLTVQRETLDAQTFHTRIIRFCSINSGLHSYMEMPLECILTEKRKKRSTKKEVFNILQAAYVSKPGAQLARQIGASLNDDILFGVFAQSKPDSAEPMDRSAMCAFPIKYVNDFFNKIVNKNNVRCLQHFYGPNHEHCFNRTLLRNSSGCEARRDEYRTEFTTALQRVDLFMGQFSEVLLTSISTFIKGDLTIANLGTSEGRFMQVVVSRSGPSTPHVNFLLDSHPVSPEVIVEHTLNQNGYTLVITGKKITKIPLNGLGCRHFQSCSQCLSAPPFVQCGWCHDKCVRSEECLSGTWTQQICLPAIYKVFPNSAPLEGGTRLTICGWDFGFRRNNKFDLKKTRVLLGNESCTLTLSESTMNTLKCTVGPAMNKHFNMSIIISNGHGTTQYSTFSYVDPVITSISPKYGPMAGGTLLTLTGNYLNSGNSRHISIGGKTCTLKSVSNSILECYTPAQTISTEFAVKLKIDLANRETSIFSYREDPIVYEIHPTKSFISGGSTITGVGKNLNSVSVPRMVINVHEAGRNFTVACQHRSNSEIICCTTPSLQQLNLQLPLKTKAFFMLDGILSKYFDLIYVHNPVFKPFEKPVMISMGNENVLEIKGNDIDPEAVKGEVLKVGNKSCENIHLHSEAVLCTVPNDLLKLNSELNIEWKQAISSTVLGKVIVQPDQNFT

B1: E×E, anti-EGFR single antibody of Example 2 (antibody)
chain: QVQLVQSGAEVKKPGSSVKVSCKASGFTFTDYKIHWVRQAPGQGLEWMGYFNPNSGYSTYAQKFQGRVTITADKSTSTAYMELSSLRSEDTAVYYCARLSPGGYYVMDAWGQGTTVTVSSGGGGSSGGGSGGGGSDIQMTQSPSSLSASVGDRVTITCRASQGINNYLNWYQQKPGKAPKRLIYNTNNLQTGVPSRFSGSGSGTEFTLTISSLQPEDFATYYCLQHNSFPTFGQGTKLEIKRT[human IgG1 Fc left out here]
Consider B1, for which the Kd in assay [1] was 6.8 nM.

B2: M×M, anti-cMet monospecific bivalent Ab of Example 4 (antibody)
chain: EVQLVESGGGLVQPGGSLRLSCAASGFTFTDYYMSWVRQAPGKGLEWLGFIRNKANGYTTEYSASVKGRFTISRDNSKNTLYLQMNSLRAEDTAVYYCARDNWFAYWGQGTLVTVSSGLGGLGGGGSGGGGSGGSSGVGSDIQMTQSPSSLSASVGDRVTITCKSSQSLLASGNQNNYLAWHQQKPGKAPKMLIIWASTRVSGVPSRFSGSGSGTDFTLTISSLQPEDFATYYCQQSYSRPYTFGQGTKVEIKR[human IgG1 Fc left out here]
B2: the equilibrium dissociation constant (Kd) in assay [2] was < 0.01 nM.

B3: M×M, anti-c-Met single antibody of Example 2 (antibody)
chain: EVQLVESGGGLVQPGGSLRLSCAASGFTFTDYYMSWVRQAPGKGLEWLGFIRNKANGYTTEYSASVKGRFTISRDNSKNTLYLQMNSLRAEDTAVYYCARDNWFAYWGQGTLVTVSSGLGGLGGGGSGGGGSGGSSGVGSDIQMTQSPSSLSASVGDRVTITCKSSQSLLASGNQNNYLAWHQQKPGKAPKMLIIWASTRVSGVPSRFSGSGSGTDFTLTISSLQPEDFATYYCQQSYSRPYTFGQGTKVEIKR[human IgG1 Fc left out here]
Consider B3, for which, in assay [3], the Kd was 0.000179 nM.
